Measured values taken from PubChem BioAssay AID651582 (Sanford-Burnham Center for Chemical Genomics, 2012).
This is one part of the list. These are further read-outs of the screen, such as a control signal, another cell line or another target. No call is given for them. The list favours compounds with an active or inconclusive main result.

Assay: TAG lipid buildup reduction in H9c2 cells – cell-based, uHTS, fluorescence, primary screen (AID 651582)
Conditions: Nile Red lipid (TAG) fluorescence, measured here:, at 12.5 µM, cells loaded with 200 µM oleic acid
In the case of O=C(O)c1ccc(N/N=C/c2ccc(-c3cccc(Cl)c3)o2)cc1, the DAPI nuclei signal change (viability), lower = more cytotoxic is reported as 21.7%.
With C(=N\Nc1nc2ccccc2[nH]1)/c1cccc2cccnc12 the DAPI nuclei signal change (viability), lower = more cytotoxic was -34%.
For CCOc1ccc(CC2c3cc(OCC)c(OCC)cc3CCN2C(=O)c2cc(OC)c(OC)c(OC)c2)cc1OCC (stereo unspecified), the DAPI nuclei signal change (viability), lower = more cytotoxic was 9.71%.
Work on O=C(c1ccc(F)cc1)C1CCN(C(=O)NC2CCCCC2)CC1 yielded a DAPI nuclei signal change (viability), lower = more cytotoxic of -9.27%.
Compound Cc1cc(C)c2nc(N3CCC(C(=O)NCCCN4CCCCC4)CC3)sc2c1 has a DAPI nuclei signal change (viability), lower = more cytotoxic of 3.61%.
For CN(C)CCCNC(=O)C[C@H]1C[C@H](C(=O)N2CCOCC2)[C@@]2(CCC3CCCC3)c3[nH]c4cc(-c5ccco5)ccc4c3CCN2C1=O, the DAPI nuclei signal change (viability), lower = more cytotoxic was -8.46%.
COC(=O)[C@]1(C)N[C@H](c2ccc(-c3ccc(Cl)c(Cl)c3)c(OC)c2)[C@@H]2C(=O)N(C)C(=O)[C@@H]21 gave a DAPI nuclei signal change (viability), lower = more cytotoxic of -8.11%.
In the case of CCN(CC)CCC(=O)Nc1cccc2c1C(=O)c1ccccc1C2=O, the DAPI nuclei signal change (viability), lower = more cytotoxic is reported as -48.6%.
CSc1nc(N(C)NC(=O)c2ccc(Cl)cc2)c2ccccc2n1 gave a DAPI nuclei signal change (viability), lower = more cytotoxic of -33.2%.
For Cc1ccccc1NS(=O)(=O)c1ccc(N2CCCC2=O)cc1, the DAPI nuclei signal change (viability), lower = more cytotoxic was -32.8%.
CC(C)(C)OC(=O)N(CCc1ccccc1)Cc1ccccc1OCc1cccc(NC(=O)/C=C/c2ccccc2)c1 gave a DAPI nuclei signal change (viability), lower = more cytotoxic of -15.3%.
In the case of COC(=O)C=C1CCC2C3CCC4=CC(=O)C(Br)CC4(C)C3C(=O)CC12C (stereo unspecified), the DAPI nuclei signal change (viability), lower = more cytotoxic is reported as -9.44%.
CCN(CC)CCNc1ncnc2c1sc1nc(N3CCCC3)c3c(c12)CC(C)(C)OC3 showed a DAPI nuclei signal change (viability), lower = more cytotoxic of -23.9%.
In the case of COc1cc(-c2nc(-c3ccc(NC(=O)c4ccc5c(c4)OCO5)cc3)no2)cc(OC)c1OC, the DAPI nuclei signal change (viability), lower = more cytotoxic is reported as -19.4%.
Compound CCOc1ccc(CN(C)C(=O)CCl)cc1 has a DAPI nuclei signal change (viability), lower = more cytotoxic of -20.2%.
CCCCCCCCCCCCCCCC[n+]1ccccc1 showed a DAPI nuclei signal change (viability), lower = more cytotoxic of -38.6%.
Compound Cc1cc(C)c2c(N)c3ccccc3nc2n1 has a DAPI nuclei signal change (viability), lower = more cytotoxic of 97.8%.
With CSc1cc(-c2ccc(Cl)cc2)n(Cc2ccccc2)c(=O)c1C#N the DAPI nuclei signal change (viability), lower = more cytotoxic was -31.1%.
With CCOC(=O)c1[nH]c2ccc(OCC)cc2c1NC(=O)CN1CCN(c2ccccc2)CC1 the DAPI nuclei signal change (viability), lower = more cytotoxic was 24.9%.
In the case of CCN1C(=O)[C@H]2[C@@H](c3ccc(-c4cccc(Cl)c4)c(OC)c3)N[C@@](CC(C)C)(C(=O)OC)[C@H]2C1=O, the DAPI nuclei signal change (viability), lower = more cytotoxic is reported as 110%.
Cn1ncc2c(O/N=C(\N)c3ccc(C(F)(F)F)cc3)ncnc21 showed a DAPI nuclei signal change (viability), lower = more cytotoxic of -39.4%.
COc1ccccc1-n1cnc2cc(NCc3cccs3)ccc21 showed a DAPI nuclei signal change (viability), lower = more cytotoxic of -21.5%.
In the case of O=C1NC(c2cccc3ccccc23)Nc2ccc(Cl)cc21 (stereo unspecified), the DAPI nuclei signal change (viability), lower = more cytotoxic is reported as -31.7%.
With CCC1(O)CC2CN(CCc3c([nH]c4ccccc34)C(C(=O)OC)(c3cc4c(cc3OC)N(C=O)C3C(O)(C(=O)OC)C(OC(C)=O)C5(CC)C=CCN6CCC43C65)C2)C1 (stereo unspecified) the DAPI nuclei signal change (viability), lower = more cytotoxic was -42.2%.
In the case of COc1ccc(Cc2nnc(SCC(=O)Nc3ccc(C)cc3)n(N)c2=O)cc1, the DAPI nuclei signal change (viability), lower = more cytotoxic is reported as 1.62%.
In the case of CCCCCCSc1ccc([C@H]2N[C@@](CC(C)C)(C(=O)OC)[C@H]3C(=O)N(C)C(=O)[C@@H]23)cc1OC, the DAPI nuclei signal change (viability), lower = more cytotoxic is reported as -39.7%.
